In US20230002486A1 (SPARX THERAPEUTICS, published 2023):

B1: Dblnk3, linker-enhanced single-chain bispecific antibody (bispecific antibody)
chain: DIQMTQSPSSLSASVGDRVTITCKSSQSLLNSGNQKSYLTWYQQKPGKAPKLLIYWASTLESGVPSRFSGSGSGTDYTLTISSLQPEDFATYYCQNAYFFPFTFGQGTKVEIKSGGGGEVQLVESGGGLVQPGGSLRLSCAASGFTFSRYWMSWVRQAPGKGLEWVANIKQDGSEKYYVDSVKGRFTISRDNAKNSLYLQMNSLRAEDTAVYYCAREGGWFGELAFDYWGQGTLVTVSSGGGGSGSGSSGSSSGEIVLTQSPGTLSLSPGERATLSCRASQRVSSSYLAWYQQKPGQAPRLLIYDASSRATGIPDRFSGSGSGTDFTLTISRLEPEDFAVYYCQQYGSLPWTFGQGTKVEIKSGGGGEVQLVESGGGLVQPGGSLRLSCAVSGYTFSMNWVRQAPGKGLEWVAWINMYTGEPTYADDFKGRFTISRDDSKNTLYLQMNSLRAEDTAVYYCARLYNGNSLDYWGQGTLVTVSSGGGGS[human IgG1 Fc with C220S (EU numbers) not printed]
notes: Single polypeptide with Fc; also called DbInk3; DbINK3
B2: Dblnk4, linker-enhanced single-chain bispecific antibody (bispecific antibody)
chain: DIQMTQSPSSLSASVGDRVTITCKSSQSLLNSGNQKSYLTWYQQKPGKAPKLLIYWASTLESGVPSRFSGSGSGTDYTLTISSLQPEDFATYYCQNAYFFPFTFGQGTKVEIKGGGGSGEVQLVESGGGLVQPGGSLRLSCAASGFTFSRYWMSWVRQAPGKGLEWVANIKQDGSEKYYVDSVKGRFTISRDNAKNSLYLQMNSLRAEDTAVYYCAREGGWFGELAFDYWGQGTLVTVSSGSSSGGGSGGSSSSSSEIVLTQSPGTLSLSPGERATLSCRASQRVSSSYLAWYQQKPGQAPRLLIYDASSRATGIPDRFSGSGSGTDFTLTISRLEPEDFAVYYCQQYGSLPWTFGQGTKVEIKSGGSEVQLVESGGGLVQPGGSLRLSCAVSGYTFSMNWVRQAPGKGLEWVAWINMYTGEPTYADDFKGRFTISRDDSKNTLYLQMNSLRAEDTAVYYCARLYNGNSLDYWGQGTLVTVSSGGGGS[human IgG1 Fc with C220S (EU numbers) not printed]
notes: Single polypeptide with Fc; also called DbInk4; DbInk 4
B3: Dblnk18, linker-enhanced single-chain bispecific antibody (bispecific antibody)
chain: DIQMTQSPSSLSASVGDRVTITCKSSQSLLNSGNQKSYLTWYQQKPGKAPKLLIYWASTLESGVPSRFSGSGSGTDYTLTISSLQPEDFATYYCQNAYFFPFTFGQGTKVEIKGSGSGGEVQLVESGGGLVQPGGSLRLSCAASGFTFSRYWMSWVRQAPGKGLEWVANIKQDGSEKYYVDSVKGRFTISRDNAKNSLYLQMNSLRAEDTAVYYCAREGGWFGELAFDYWGQGTLVTVSSGGGGSSGSGSSSRSSGGEIVLTQSPGTLSLSPGERATLSCRASQRVSSSYLAWYQQKPGQAPRLLIYDASSRATGIPDRFSGSGSGTDFTLTISRLEPEDFAVYYCQQYGSLPWTFGQGTKVEIKGSGGGEVQLVESGGGLVQPGGSLRLSCAVSGYTFSMNWVRQAPGKGLEWVAWINMYTGEPTYADDFKGRFTISRDDSKNTLYLQMNSLRAEDTAVYYCARLYNGNSLDYWGQGTLVTVSSGGGGS[human IgG1 Fc with C220S (EU numbers) not printed]
notes: Single polypeptide with Fc; also called DbInk18
B4: Dblnk2, linker-enhanced single-chain bispecific antibody (bispecific antibody)
chain: DIQMTQSPSSLSASVGDRVTITCKSSQSLLNSGNQKSYLTWYQQKPGKAPKLLIYWASTLESGVPSRFSGSGSGTDYTLTISSLQPEDFATYYCQNAYFFPFTFGQGTKVEIKSGGGGEVQLVESGGGLVQPGGSLRLSCAASGFTFSRYWMSWVRQAPGKGLEWVANIKQDGSEKYYVDSVKGRFTISRDNAKNSLYLQMNSLRAEDTAVYYCAREGGWFGELAFDYWGQGTLVTVSSSSSGSGGGGSGGGGGGEIVLTQSPGTLSLSPGERATLSCRASQRVSSSYLAWYQQKPGQAPRLLIYDASSRATGIPDRFSGSGSGTDFTLTISRLEPEDFAVYYCQQYGSLPWTFGQGTKVEIKGSSGSEVQLVESGGGLVQPGGSLRLSCAVSGYTFSMNWVRQAPGKGLEWVAWINMYTGEPTYADDFKGRFTISRDDSKNTLYLQMNSLRAEDTAVYYCARLYNGNSLDYWGQGTLVTVSSGGGGS[human IgG1 Fc with C220S (EU numbers) not printed]
notes: Single polypeptide with Fc; also called DbInk2; DbInk 2
B5: Dblnk17, linker-enhanced single-chain bispecific antibody (bispecific antibody)
chain: DIQMTQSPSSLSASVGDRVTITCKSSQSLLNSGNQKSYLTWYQQKPGKAPKLLIYWASTLESGVPSRFSGSGSGTDYTLTISSLQPEDFATYYCQNAYFFPFTFGQGTKVEIKSGSGGSEVQLVESGGGLVQPGGSLRLSCAASGFTFSRYWMSWVRQAPGKGLEWVANIKQDGSEKYYVDSVKGRFTISRDNAKNSLYLQMNSLRAEDTAVYYCAREGGWFGELAFDYWGQGTLVTVSSGSGGGGSSGSSGSGGSGEIVLTQSPGTLSLSPGERATLSCRASQRVSSSYLAWYQQKPGQAPRLLIYDASSRATGIPDRFSGSGSGTDFTLTISRLEPEDFAVYYCQQYGSLPWTFGQGTKVEIKSSSGSSEVQLVESGGGLVQPGGSLRLSCAVSGYTFSMNWVRQAPGKGLEWVAWINMYTGEPTYADDFKGRFTISRDDSKNTLYLQMNSLRAEDTAVYYCARLYNGNSLDYWGQGTLVTVSSGGGGS[human IgG1 Fc with C220S (EU numbers) not printed]
notes: Single polypeptide with Fc; also called DbInk17; DbInk 17
B6: Dblnk15, linker-enhanced single-chain bispecific antibody (bispecific antibody)
chain: DIQMTQSPSSLSASVGDRVTITCKSSQSLLNSGNQKSYLTWYQQKPGKAPKLLIYWASTLESGVPSRFSGSGSGTDYTLTISSLQPEDFATYYCQNAYFFPFTFGQGTKVEIKGGGSGEVQLVESGGGLVQPGGSLRLSCAASGFTFSRYWMSWVRQAPGKGLEWVANIKQDGSEKYYVDSVKGRFTISRDNAKNSLYLQMNSLRAEDTAVYYCAREGGWFGELAFDYWGQGTLVTVSSGSSSGGSSGSGGGGGGGEIVLTQSPGTLSLSPGERATLSCRASQRVSSSYLAWYQQKPGQAPRLLIYDASSRATGIPDRFSGSGSGTDFTLTISRLEPEDFAVYYCQQYGSLPWTFGQGTKVEIKSGGSEVQLVESGGGLVQPGGSLRLSCAVSGYTFSMNWVRQAPGKGLEWVAWINMYTGEPTYADDFKGRFTISRDDSKNTLYLQMNSLRAEDTAVYYCARLYNGNSLDYWGQGTLVTVSSGGGGS[human IgG1 Fc with C220S (EU numbers) not printed]
notes: Single polypeptide with Fc; also called DbInk15

Experiments:
[1] = biological target: T1, CLDN 18.2 expressed on stably transfected cells (HEK293T-CLDN 18.2, MiaPaCa-CLDN 18.2) (human); assay: cell-based or functional assay
[2] = biological target: T2, CLDN 18.2 fused with GFP at its C-terminal, on MCF7 cells (MCF7-CLDN 18.2) (human); assay: cell-based or functional assay
[3] = biological target: T1, CLDN 18.2 expressed on stably …; assay: cell-based or functional assay; remark: listed apart in the source
[4] = biological target: T2, CLDN 18.2 fused with GFP at its …; assay: cell-based or functional assay; remark: listed apart in the source
[5] = biological target: T3, PD-L1 (programmed death-ligand 1), recombinant protein (human, UniProt Q9NZQ7 partial chain, limits assumed); assay: direct ELISA, coated PD-L1
T3 construct: the other ELISAs print only 'PD-L1'; also called human PDL1; CD274
T3 sequence (Q9NZQ7 19-238 limits assumed): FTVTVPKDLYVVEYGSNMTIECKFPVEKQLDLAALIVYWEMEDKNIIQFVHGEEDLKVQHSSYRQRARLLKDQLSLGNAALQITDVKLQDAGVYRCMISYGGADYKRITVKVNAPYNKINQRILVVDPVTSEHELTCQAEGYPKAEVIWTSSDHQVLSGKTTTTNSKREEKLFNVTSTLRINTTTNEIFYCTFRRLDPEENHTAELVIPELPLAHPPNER
From the text: (§1) ELISA assay was employed to determine the binding properties of the bispecific antibodies to their antigens. […] The wells were then reacted with goat anti human IgG antibody conjugated with horseradish peroxidase (HRP).

[6] = biological target: T3, PD-L1 (programmed death-ligand 1), …; assay: direct ELISA, coated PD-L1 (FIG. 13A)
[7] = biological target: claudin 18.2 (CLDN 18.2), recombinant protein (human); assay: direct ELISA, coated recombinant CLDN 18.2
From the text: as §1

[8] = biological target: claudin 18.2 (CLDN 18.2), recombinant protein (human); assay: direct ELISA, coated recombinant CLDN 18.2 (FIG. 11A)
[9] = biological target: T1, CLDN 18.2 expressed on stably …; assay: In-Cell ELISA on fixed HEK293T cells over-expressing CLDN 18.2
[10] = biological target: T3, PD-L1 (programmed death-ligand 1), …; assay: competitive ELISA, coated PD-L1, antibody pre-incubated with soluble PD-L1
[11] = biological target: T3, PD-L1 (programmed death-ligand 1), …; assay: competitive ELISA, coated PD-L1, antibody pre-incubated with soluble PD-L1 (FIG. 13B)
[12] = biological target: T2, CLDN 18.2 fused with GFP at its …; assay: flow cytometry on living MCF7 cells stably expressing CLDN 18.2, DyLight 650 anti-IgG
[13] = biological target: T3, PD-L1 (programmed death-ligand 1), …; assay: direct ELISA, coated PD-L1 (FIG. 12A)
[14] = biological target: claudin 18.2 (CLDN 18.2), recombinant protein (human); assay: direct ELISA, coated recombinant CLDN 18.2 (FIG. 11B)
[15] = biological target: T3, PD-L1 (programmed death-ligand 1), …; assay: competitive ELISA, coated PD-L1, antibody pre-incubated with soluble PD-L1 (FIG. 12B)

Row | Binder | ADCC reporter assay, EC50 (FIG. 23A) [1] [nM] | CDC against MCF7-CLDN 18.2 cells, EC50 (FIG. 17A) [2] [nM] | ADCC Reporter in HEK293-CLDN18.2, EC50 [3] [nM] | ADCC Reporter in MCF7-CLDN 18.2, EC50 [4] [nM] | CDC in MCF7-CLDN 18.2, EC50 [4] [nM] | Kd [5] [nM] | Kd [6] [nM] | Kd [7] [nM] | Kd [8] [nM] | Kd [9] [nM] | Kd [10] [nM] | IC50 [11] [nM] | Kd [13] [nM] | Kd [14] [nM] | IC50 [15] [nM] | also measured
1 | B1 | 0.00104 | 0.821 | 0.001 | 0.0075 | 0.82 | 0.5 | 0.498 | 0.29 | 0.294 | 0.523 | 0.66 | 0.656 |  |  |  | Bmax [9]: 1.01 nM
2 | B2 |  |  |  | 0.002 |  |  |  | 0.24 | 0.239 |  |  |  |  |  |  | ADCC reporter assay, EC50 (FIG. 24A) [2]: 0.00173 nM; EC50 (read off the curve) [12]: ~5 nM
3 | B3 |  |  |  | 0.0058 |  | 0.49 |  | 0.22 |  |  | 0.65 |  | 0.492 | 0.217 | 0.652 | ADCC reporter assay, EC50 (FIG. 24B) [2]: 0.00579 nM
4 | B4 | 0.00937 | 1.03 | 0.0094 | 0.011 | 1 | 0.64 | 0.642 | 0.32 | 0.323 | 3.23 |  | 0.426 | 0.882 |  | 0.573 | CDC against Mia Paca-CLDN 18.2 cells, EC50 (FIG. 17B) [1]: 0.349 nM; CDC in MiaPaCa-CLDN 18.2, EC50 [3]: 0.35 nM
5 | B5 |  |  |  |  |  | 0.44 | 0.437 | 0.22 |  |  |  | 0.652 |  | 0.225 |  | 
6 | B6 |  |  |  |  |  | 0.46 | 0.46 | 0.23 |  |  | 0.58 | 0.58 |  | 0.232 |  | 
